These are enrichments in a pooled selection; single values are uncertain.
System: NB7
Assay: fold depletion of shRNA, plasmid library share / infected cells without Dox share (9 days) (ratio); higher = more depleted after infection (more toxic, leaky expression from a Tet-inducible vector; NB7 is a neuroblastoma line without caspase-8)
[1] = shRNA pool: CD95L ORF + CD95L 3'UTR + Venus libraries
[2] = shRNA pool: CD95 ORF + CD95 3'UTR + Venus libraries
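Also: shRNA barcodes quantified by deep sequencing of PCR amplicons from cellular DNA, counts expressed as percent of each subpool, ratio averaged over two biological duplicates.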

Sequence | fold depletion of shRNA [1] | fold depletion of shRNA [2]
CAAGCTGGAGTACAACTACAA | 1.82 | 1.12
CAAGGACATTACTAGTGACTC | – | 1.45
CAAGGACGACGGCAACTACAA | 1.24 | 1.43
CAAGGAGGACGGCAACATCCT | 1.2 | 2.09
CAAGGATGTTTAAAATCTAGT | – | 0.471
CAAGGCCAACTTCAAGATCCG | 1.31 | 0.861
CAAGGGATTGGAATTGAGGAA | – | 1.75
CAAGGGCGAGGAGCTGTTCAC | 2.19 | 0.83
CAAGGGGGACTGTCTTTCAGA | 0.696 | –
CAAGGTCCATGCCTCTGGAAT | 0.986 | –
CAAGGTCTACATGAGGAACTC | 0.631 | –
CAAGGTGGGCCTTGCTACCTC | 0.932 | –
CAAGGTTCTCATGAATCTCCA | – | 2.31
CAAGTAAGAAGACATGAACCA | 0.598 | –
CAAGTCCAACTCAAGGTCCAT | 0.658 | –
CAAGTCCGCCATGCCCGAAGG | 1.79 | 0.953
CAAGTGACTGACATCAACTCC | – | 2.08
CAAGTGCAAAGAGGAAGGATC | – | 1.83
CAAGTGCAGATGTAAACCAAA | – | 0.814
CAAGTGGACCTTGAGACCACA | 0.755 | –
CAAGTTAAAGGCTTTGTTCGA | – | 0.592
CAAGTTCAGCGTGTCCGGCGA | 0.862 | 1.06
CAAGTTTCTAAGATTTAAGAT | – | 0.918
CAATAAATTTATCTGATGTTG | – | 0.702

Sequence | fold depletion of shRNA [1] | fold depletion of shRNA [2]
CAATAATGTCCCATGTAAAAC | – | 1.09
CAATAGAAGAAGCTATGACCT | – | 2.23
CAATATTTCAATTGTGAATTC | – | 0.516
CAATCAAAGATGATAAAATAG | – | 0.296
CAATCAACTCTAATAGTGCTT | 0.336 | –
CAATCTTACCAGTGCTGATCA | 3.95 | –
CAATGAAACTGGGCTGTACTT | 2.94 | –
CAATGAAGCCAAAATAGATGA | – | 0.859
CAATGCCCCACTGGCAGCATC | 1.46 | –
CAATGGGGATGAACCAGACTG | – | 0.584
CAATGGTAAAATCATCATCTG | – | 0.978
CAATGTCCAAGACACAGCAGA | – | 2.39
CAATTACCCATATCCCCAGAT | 1.05 | –
CAATTAGTGTTTGAAAAGATT | – | 0.785
CAATTCCACTAATTGTTTGGG | – | 1.08
CAATTGTGAATTCACATAGAA | – | 0.825
CAATTTTGAGGAATCTCAGAC | 1.81 | –
CACAACATCGAGGACGGCGGC | 1.62 | 1.29
CACAACGTCTATATCACCGCC | 1.23 | 0.969
CACAAGCTGGAGTACAACTAC | 1.91 | 1.73
CACAAGGTCTACATGAGGAAC | 1.11 | –
CACAAGTTCAGCGTGTCCGGC | 1.59 | 1.49
CACACAGCATCATCTTTGGAG | 0.865 | –
CACACTCACCAGCAACACCAA | – | 0.677

Sequence | fold depletion of shRNA [1] | fold depletion of shRNA [2]
CACAGAAAGGAAAACCAAGGT | – | 1.29
CACAGACAAAGCCCATTTTTC | – | 1.6
CACAGCACAGGCCTGTGTCTC | 1.64 | –
CACAGCAGAACAGAAAGTTCA | – | 0.669
CACAGCATCATCTTTGGAGAA | 1.54 | –
CACAGCATGTGTATTTCCAGT | 4 | –
CACAGGCCTGTGTCTCCTTGT | 4.91 | –
CACAGGCTAACCCCACTCTAT | – | 1.92
CACAGGGTTCAAAATGTCTGT | 2.15 | –
CACAGTCAATGGGGATGAACC | – | 1.04
CACAGTTCTTCCCTGTCCAAC | 4.19 | –
CACAGTTTATTGGTGTCATAT | – | 0.896
CACATAGAAAACATTAAATTA | – | 0.786
CACATGAAGCAGCACGACTTC | 1.57 | 1.18
CACATGGTCCTGCTGGAGTTC | 1.37 | 1.09
CACATTGATTAAAGATCTCAA | – | 0.555
CACCAAAAAATACTTAATAGT | – | 0.792
CACCAAAAGGCAAGACTGCCC | – | 0.753
CACCAAATGTGAACATGGAAT | – | 1.02
CACCAAGTGCAAAGAGGAAGG | – | 0.735
CACCACCACCACCGCCACCGC | 0.793 | –
CACCACCGCCACCGCCACCAC | 0.619 | –
CACCACCGGCAAGCTGCCCGT | 0.981 | 1.12
CACCACTACCACCTCCGCCGC | 2.11 | –

Sequence | fold depletion of shRNA [1] | fold depletion of shRNA [2]
CACCACTATTGCTGGAGTCAT | – | 1.17
CACCACTGCCTCCACTACCGC | 2.66 | –
CACCAGCAACACCAAGTGCAA | – | 2.57
CACCATCTTCTTCAAGGACGA | 3.56 | 2.23
CACCCCAGTCCACCCCCTGAA | 0.472 | –
CACCCCCAAACATGGAAATAT | – | 1.84
CACCCCCATCGGCGACGGCCC | 0.842 | 1.09
CACCCCCGAAAATGTTCAATA | – | 1.91
CACCCCCTGAAAAAAAGGAGC | 1.3 | –
CACCCCTGAAGAAGAGAGGGA | 2.27 | –
CACCCGGACCCAGAATACCAA | – | 1.68
CACCCTCGTGACCACCCTGGG | 1.2 | 1.1
CACCCTGGGCTACGGCCTGCA | – | 1.45
CACCCTGGTGAACCGCATCGA | 1.41 | 1.79
CACCGAGAATGTTGTATTCAG | 3.45 | –
CACCGCCACCACTACCACCTC | 1.37 | –
CACCGCCACCGCCACCACTAC | 0.471 | –
CACCGCCGACAAGCAGAAGAA | 0.934 | 0.971
CACCGGCAAGCTGCCCGTGCC | 1.34 | 0.592
CACCGGGGTGGTGCCCATCCT | 1.08 | 1.18
CACCTAAAGAACTTCCATTTA | – | 1.24
CACCTAATGTTTATGAGCCAG | 1.77 | –
CACCTACAGAAGGAGCTGGCA | 6.35 | –
CACCTACGGCAAGCTGACCCT | 0.603 | 0.462

Sequence | fold depletion of shRNA [1] | fold depletion of shRNA [2]
CACCTATGGAATTGTCCTGCT | 1.63 | –
CACCTCTCAAGGTGGGCCTTG | 0.921 | –
CACCTCTCCATTTTTGCCTTG | – | 2.33
CACCTTTTAACTCACCTCTCA | 0.557 | –
CACGACTTCTTCAAGTCCGCC | 0.811 | 1.17
CACTAAGTCAAGTTAAAGGCT | – | 0.534
CACTAATTGTTTGGGTGAAGA | – | 0.746
CACTACCACCTCCGCCGCCGC | 8.79 | –
CACTACCAGCAGAACACCCCC | 2 | 1.63
CACTACCTGAGCTACCAGTCC | 1.82 | 2.77
CACTACTGGGCAGATGTGGGC | 0.397 | –
CACTCACCAGCAACACCAAGT | – | 1.47
CACTCATCTTAGTGCCTGAGA | 1.25 | –
CACTCTATGAATCAATAGAAG | – | 1.22
CACTCTCGGCATGGACGAGCT | 1.8 | 1.19
CACTGCCTCCACTACCGCTGC | 5.46 | –
CACTGGCAGCATCTTCACTTC | 1.01 | –
CACTGTGACCCTTGCACCAAA | – | 2.63
CACTTCTAAATGCATATCCTG | 1.38 | –
CACTTTGCCTCTAAATTACCT | – | 0.723
CACTTTGGGATTCTTTCCATT | 1.06 | –
CAGAAAACATGCAGAAAGCAC | – | 2.26
CAGAAAATTCAAACTTCAGAA | – | 1.39
CAGAAAGCACAGAAAGGAAAA | – | 0.754

Sequence | fold depletion of shRNA [1] | fold depletion of shRNA [2]
CAGAAAGGAAAACCAAGGTTC | – | 1.8
CAGAAAGTTCAACTGCTTCGT | – | 1.78
CAGAAATGAAATCCAAAGCTT | – | 1.62
CAGAACACCCCCATCGGCGAC | 2.34 | 1.56
CAGAACAGAAAGTTCAACTGC | – | 2.75
CAGAACTCCGAGAGTCTACCA | 1.38 | –
CAGAACTTGGAAGGCCTGCAT | – | 7.69
CAGAAGAACGGCATCAAGGCC | 2.85 | 0.682
CAGAAGATGTAGATTGTGTGA | – | 1.11
CAGAAGGAGCTGGCAGAACTC | 0.14 | –
CAGAATACCAAGTGCAGATGT | – | 2.61
CAGAATTTAAATAAGGCTCTA | – | 0.771
CAGACAAAGCCCATTTTTCTT | – | 0.767
CAGACAAATGGAGGAATATGA | 0.793 | –
CAGACGTTTTTCGGCTTATAT | 0.822 | –
CAGACTATCATCCTCAAGGAC | – | 0.9
CAGACTGCGTGCCCTGCCAAG | – | 0.885
CAGAGAAAATTCAGACTATCA | – | 0.812
CAGAGAAAGTAGCTTTGTGAC | – | 2.42
CAGATAAGCAAGAGAGATGTT | 1.89 | –
CAGATACATGGTTGTGACCTG | 1.13 | –
CAGATCTAACTTGGGGTGGCT | – | 2.47
CAGATGCACACAGCATCATCT | 0.931 | –
CAGATGTAAACCAAACTTTTT | – | 0.582
